Data: PubChem BioAssay AID504845 (National Center for Advancing Translational Sciences (NCATS), 2011)
In all, about 390,000 compounds went through this assay and about 150 (0.038%) were called active. Inconclusive results, whose numbers are uncertain, are shown with a selection of clear calls. The call rests on the fitted dose curve; in most records, active means well fitted inhibition curve with a large enough effect; inconclusive means small, poorly fitted or top-dose-only effect; inactive means no such curve, though single readings can be large or run the other way. A potency beside an inconclusive call is a rough fit, not a confirmed value.
Further: nearly all actives have a fitted effect of over 75% in size.
On the % scale 0 is the no-effect control and ±100 the full control effect; potency means the concentration at half of the fitted maximal effect; tags describe the fitted curve by direction and shape.

These molecules were tested against Regulator of G-protein signaling 4 (Homo sapiens) (UniProt P49798) (assay: Inhibitors of Regulator of G Protein Signaling (RGS) 4: qHTS). Settings: Transcreener GDP fluorescence polarization, RGS4-accelerated GTP hydrolysis; series mostly up to 114 µM.
UniProt P49798, sequence (P49798 whole entry, looked up): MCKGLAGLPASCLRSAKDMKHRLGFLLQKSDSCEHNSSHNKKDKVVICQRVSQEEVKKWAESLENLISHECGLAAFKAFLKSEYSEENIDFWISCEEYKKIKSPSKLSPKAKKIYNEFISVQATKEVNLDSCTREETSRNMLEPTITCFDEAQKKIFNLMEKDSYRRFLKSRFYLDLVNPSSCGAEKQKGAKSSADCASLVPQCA
Procedure, shortened: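 MLSMR compounds (23 nl, pin-transferred) preincubated 10 min at room temperature with a 500nM (2x) first reagent, then RGS4 at 900nM (2x) plus Transcreener GDP mix added; fluorescence polarization (620/688 nm) read before and after 90 min at 30 °C.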
For `Cc1nn(CC(=O)Nc2sc3c(c2C#N)CCC(C(C)(C)C)C3)c(C)c1[N+](=O)[O-]` (configuration not stated), the Potency was inconclusive: 79.4 µM [inhibitor, partial curve, poor fit].
For `CCOc1ccc(/C=C/c2nc3ccccc3n2S(=O)(=O)c2cccc(Cl)c2)cc1`, the Potency was “inactive”.
`CCN(CC)S(=O)(=O)c1cccc(C(=O)N/N=C/c2c(C)nn(-c3ccccc3)c2Cl)c1` was tested, and the Potency was inconclusive: 17.8 µM [inhibitor, full curve, poor fit].
With `CCOc1ccc(C(O)(CCC(C)C)C(CN2CCOCC2)c2ccccc2)cc1` (configuration not stated) the Potency was “inactive”.
With `COc1ccccc1C1=Nc2cccc3cccc(c23)N1` the Potency was inconclusive: 89.1 µM [inhibitor, partial curve, poor fit].
`Fc1ccc(N=c2ssnc2Cl)c(F)c1` was tested, and the Potency was inconclusive: 20 µM [inhibitor, full curve, poor fit].
`CCOC(=O)C1(CCCc2ccccc2)CCN(C(=O)CSC)CC1` was tested, and the Potency was “inactive”.
For `O=C(CCC(=O)c1ccc(F)cc1)NN1C(=O)NC2(CCCCC2)C1=O`, the Potency was “inactive”.
`Cc1cc(C)c(C#N)c(SCC(=O)N(C)C2CCCCC2)n1` was tested, and the Potency was inconclusive: 79.4 µM [inhibitor, single point].
In the case of `COc1ccc(S(=O)(=O)N2CCCC(C(=O)NCCC(C)C)C2)cc1` (configuration not stated), the Potency is reported as inconclusive: 56.2 µM [inhibitor, partial curve, poor fit].
With `Cc1ccc(NC(=O)COC(=O)COc2ccc3ccc(=O)oc3c2)cc1[N+](=O)[O-]` the Potency was “inactive”.
In the case of `CN(C)/C=N/C(=S)Nc1ccc(Cl)cc1`, the Potency is reported as “inactive”.
`O=C(c1ccccc1)N1N=C(c2ccccc2)CC1(O)C(F)(F)F` (configuration not stated) was tested, and the Potency was inconclusive: 79.4 µM [inhibitor, partial curve, poor fit].
`COc1ccc(OC)c(S(=O)(=O)ON2C(=O)c3ccccc3C2=O)c1` was tested, and the Potency was inconclusive: 100 µM [inhibitor, partial curve, poor fit].
`O=c1[nH]c2cc3c(cc2cc1CN(CCCO)C(=S)NCc1ccco1)OCO3` was tested, and the Potency was inconclusive: 70.8 µM [inhibitor, partial curve, poor fit].
With `Cc1ccnc(N=O)c1` the Potency was inconclusive: 39.8 µM [inhibitor, partial curve, poor fit].
In the case of `CC1CCCN(CCC(=O)Nc2ccc(Br)cc2)C1` (configuration not stated), the Potency is reported as “inactive”.
With `O=C(O)C(Cc1ccccc1)N1C(=O)/C(=C/c2cccs2)SC1=S` (configuration not stated) the Potency was inconclusive: 100 µM [inhibitor, partial curve, poor fit].
`O=C(N/N=C/c1ccc(O)cc1O)c1ccc(CN2C(=O)c3cccc4cccc2c34)cc1` was tested, and the Potency was inconclusive: 17.8 µM [inhibitor, full curve, poor fit].
`Nc1ccc2oc(Cc3ccc(Cl)cc3)nc2c1` was tested, and the Potency was inconclusive: 17.8 µM [inhibitor, full curve, poor fit].
`O=C(Nc1ccccc1)Nc1cc(OCC(F)(F)F)cc(OCC(F)(F)F)c1` was tested, and the Potency was “inactive”.
With `O=C1N(CC(=O)N2CCc3ccccc32)CCN1Cc1ccc(Cl)cc1` the Potency was inconclusive: 70.8 µM [inhibitor, single point].
In the case of `O=C1C(NS(=O)(=O)c2ccc(Cl)cc2)=C(N2CCCCC2)C(=O)c2ccccc21`, the Potency is reported as inconclusive: 79.4 µM [inhibitor, partial curve, poor fit].
`COc1ccc(C(CNC(=O)Cc2ccccc2F)N2CCCCC2)cc1` (configuration not stated) was tested, and the Potency was “inactive”.
For `C/C(=N\NC(=O)COc1ccccc1[N+](=O)[O-])c1cccc(NC(=O)c2ccncc2)c1`, the Potency was inconclusive: 89.1 µM [inhibitor, partial curve, poor fit].
For `CCOC(=O)c1ccc(NC(=O)c2c(NCc3cc(OC)ccc3OC)sc3c2CCC3)cc1`, the Potency was inconclusive: 79.4 µM [inhibitor, partial curve, poor fit].
In the case of `NC(=O)CC(NC(=O)Cc1cccc2ccccc12)c1ccc(N2CCN(c3ccccn3)CC2)c([N+](=O)[O-])c1` (configuration not stated), the Potency is reported as inconclusive: 89.1 µM [inhibitor, single point].
In the case of `O=C(O)CN1C(=O)C2C3CC(C2C1=O)C1C(c2ccc(Cl)cc2)c2sc(=O)[nH]c2SC31` (configuration not stated), the Potency is reported as inconclusive: 112 µM [inhibitor, partial curve, poor fit].
With `c1ccc(CSc2ccc3nnc(-c4cccnc4)n3n2)cc1` the Potency was “inactive”.
`CCN(CC)c1ccc2nc3c4ccccc4c(=O)cc-3oc2c1` was tested, and the Potency was “inactive”.
In the case of `O=C(Nc1ccc(Oc2ccccc2)cc1)N[C@@H](Cc1ccccc1)C(=O)O`, the Potency is reported as “inactive”.
For `Fc1ccc(C2=CC(c3ccc(Br)o3)n3ncnc3N2)cc1` (configuration not stated), the Potency was inconclusive: 79.4 µM [inhibitor, partial curve, poor fit].
`COc1cccc(/C=N/NC(=O)c2cc(-c3ccccn3)nc3ccccc23)c1O` was tested, and the Potency was inconclusive: 89.1 µM [inhibitor, single point].
With `Nc1c(C(=O)Nc2ccccc2)sc2nc(-c3ccco3)ccc12` the Potency was inconclusive: 89.1 µM [inhibitor, single point].
With `CC(C)NC[C@@H](O)c1ccc(O)c(O)c1` the Potency was inconclusive: 37.7 µM [inhibitor, single point].
In the case of `O=C(O)c1sc2cc(C(F)(F)F)cnc2c1-c1cccs1`, the Potency is reported as inconclusive: 56.2 µM [inhibitor, partial curve, poor fit].
For `C(=N\Nc1ccccn1)/c1ccc(N2CCOCC2)cc1`, the Potency was “inactive”.
With `Cc1[nH]n2c(=O)c3c(nc2c1-c1cccc2ccccc12)CCC3` the Potency was “inactive”.
In the case of `COc1ccc(/C=C2\C(=O)N(c3c(Cl)cc(Cl)cc3Cl)N=C2NC(=O)c2cccc([N+](=O)[O-])c2)cc1`, the Potency is reported as inconclusive: 50.1 µM [inhibitor, partial curve, poor fit].
With `CC(C)(C)OC(=O)N1CCC2(CC1)Oc1ccc(F)cc1C(=O)C21CC(c2ccccc2)=NO1` (configuration not stated) the Potency was “inactive”.
With `Cc1ccccc1NC(=O)CSc1nnc(-c2ccco2)c(-c2ccco2)n1` the Potency was inconclusive: 79.4 µM [inhibitor, partial curve, poor fit].
With `CCn1cc(C(=O)NCc2ccc(F)cc2)c(=O)c2cc(S(=O)(=O)N(C)C)ccc21` the Potency was “inactive”.
`Cc1sc(NC(=S)NC(=O)C(C)(C)C)c(C(N)=O)c1C` was tested, and the Potency was inconclusive: 70.8 µM [inhibitor, partial curve, poor fit].
In the case of `CCCCOC(=O)Sc1nc2ccccc2o1`, the Potency is reported as inconclusive: 39.8 µM [inhibitor, partial curve, poor fit].
In the case of `O=C(CSc1nnc(CNC(=O)c2ccco2)o1)Nc1ccc(Br)cc1`, the Potency is reported as inconclusive: 35.5 µM [inhibitor, full curve, poor fit].
With `Cc1sc2ncn(CCn3cnc4sc(C)c(C)c4c3=O)c(=O)c2c1C` the Potency was “inactive”.
With `COCCCN1CCN(C2Cc3ccccc3Sc3ccc(Cl)cc32)CC1` (configuration not stated) the Potency was “inactive”.
`CC1CCCN(CCCOc2ccc(Cl)cc2Br)C1` (configuration not stated) was tested, and the Potency was “inactive”.
With `CCN(CC(=O)Nc1ccc(NC(C)=O)cc1)Cc1c(O)ccc2cc(Br)ccc12` the Potency was inconclusive: 50.1 µM [inhibitor, partial curve, poor fit].
In the case of `Cc1nn(C)c(C(=O)NC(=S)Nc2ccc([N+](=O)[O-])cc2)c1Cl`, the Potency is reported as inconclusive: 31.6 µM [inhibitor, partial curve, poor fit].
For `O=C(NC1(C(F)(F)F)C(=O)Nc2c1c(=O)[nH]c(=O)n2Cc1ccco1)C1CCCCC1` (configuration not stated), the Potency was inconclusive: 89.1 µM [inhibitor, partial curve, poor fit].
For `C=CCc1ccc(OCCOc2ccc(/C=N/n3cnnc3)cc2OCC)c(OC)c1`, the activity change, negative = inhibition was inactive: -17.1% [at 11.4 µM].
`CCN1C(=O)c2ccccc2Sc2ccc(NC(=O)Nc3ccc(C(C)=O)cc3)cc21` was tested, and the Potency was inconclusive: 89.1 µM [inhibitor, single point].
`Cc1sc2ncn(CC(=O)NCCCC(=O)Nc3ccc(C(C)C)cc3)c(=O)c2c1C` was tested, and the Potency was inconclusive: 20 µM [inhibitor, full curve, poor fit].
With `O=C(NCc1cccc(Br)c1)c1ccc(-n2cnc3cccnc32)cc1` the Potency was “inactive”.
In the case of `COc1ccc(S(=O)(=O)N(C(=O)c2ccco2)c2cc3sc(=O)oc3c3ccccc23)cc1`, the Potency is reported as inconclusive: 10 µM [inhibitor, full curve, poor fit].
`CC1CCN(C(=O)CCNC(=O)c2ccccc2Cl)CC1` was tested, and the Potency was “inactive”.
In the case of `COc1ccc(C2=NN(C(=S)Nc3ccccc3)C(c3ccccc3)C2)cc1` (configuration not stated), the Potency is reported as “inactive”.
`NC(=O)COc1ccc(C(=O)/C=C2/C(=O)Nc3ccccc32)cc1` was tested, and the Potency was inconclusive: 17.8 µM [inhibitor, full curve, poor fit].
With `O=C(Nc1ccc(F)c([N+](=O)[O-])c1)C(=O)c1c(O)[nH]c2ccccc12` the Potency was inconclusive: 44.7 µM [inhibitor, partial curve, poor fit].
In the case of `Cc1ccc(NC(=O)c2sc(N)nc2-c2ccccc2)cc1C`, the Potency is reported as inconclusive: 79.4 µM [inhibitor, partial curve, poor fit].
`CCCCOc1ccc(Cc2c(COCC)[nH]c(=S)[nH]c2=O)cc1` was tested, and the Potency was inconclusive: 31.6 µM [inhibitor, partial curve, poor fit].
`O=C(NCC1CCCO1)c1ccc(COc2ccccc2)cc1` (configuration not stated) was tested, and the Potency was “inactive”.
For `Cc1ccc2occ(C3N[C@H](C(=O)O)CS3)c(=O)c2c1` (some centres not stated), the Potency was inconclusive: 31.6 µM [inhibitor, full curve, poor fit].
In the case of `Cc1ccccc1S(=O)Cc1ccc(C(=O)NC2CC2)o1` (configuration not stated), the Potency is reported as inconclusive: 44.7 µM [inhibitor, partial curve, poor fit].
`O=C1c2ccccc2C(=O)c2c1ccc1c(=O)n(-c3ccccc3)[nH]c21` was tested, and the Potency was “inactive”.
For `COc1cccc(-c2cc(C(F)(F)F)c(C#N)c(=O)[nH]2)c1`, the Potency was inconclusive: 17.8 µM [inhibitor, full curve, poor fit].
